The list shows a part of the results. At the low end of the ranking the order means little.

For this assay, the target named is SIX1-Q177R homeodomain (UniProt Q15475). Kind of assay: universal protein binding microarray. Particulars: Universal all-10-mer PBM (8x60K, AMADID 030236), 300 nM GST-tagged protein, Alexa Fluor 488 anti-GST; buffer, salt, pH and temperature not stated; high values mean tight binding; most listed sequences are background and not binding sites; double strand, one strand shown.
For CGACGTAG, the binding signal was -0.0563 E-score. As for AAGTGTCG, the figure is 0.384 E-score; as for CCGTCGTC, -0.148 E-score. As for AGCTATGG, the figure is -0.216 E-score; as for AACTGTCA, -0.199 E-score. As for TACAGCTA, the figure is 0.107 E-score; as for ACGATTGA, -0.0565 E-score; as for CCCCATCC, 0.21 E-score. For the sequence GAAGTGCC, the binding signal was -0.0872 E-score.

Turning to AGGTTAAT, the binding signal is -0.108 E-score. AGAATCCG: the binding signal was -0.0261 E-score. In the case of AATTGACG, the binding signal is -0.0709 E-score.

With TCCCTGCA, the binding signal is 0.0634 E-score. As for ATATGTGG, the figure is 0.102 E-score.

In the case of GAGCAAGC, the binding signal was -0.255 E-score. As for CCGTTCTA, the figure is 0.0384 E-score; as for ATAGCGGC, -0.0632 E-score; as for AAAAACCA, -0.0871 E-score.

On to CAGCCACA, for which the binding signal was 0.111 E-score. As for ATAATCTC, the figure is -0.00122 E-score; as for CTCGCTTA, -0.043 E-score.

In the case of CTACTCTA, the binding signal was -0.00995 E-score. To CACACATA belongs 0.15 E-score.

On to AAAAATCG, for which the binding signal is -0.238 E-score.

Consider CTCGATGA, for which the binding signal was -0.0836 E-score. To CACTGAGC belongs 0.115 E-score; to AGCTTCGA, -0.188 E-score; to ACGACCCG, 0.179 E-score. As for AGGCACCA, the figure is 0.178 E-score; as for CAACGTCC, -0.0697 E-score; as for CCTGTGCA, 0.0774 E-score. Take AATCTAGT: the binding signal is -0.163 E-score. To AGGCCCTG belongs -0.123 E-score; to ACATGGGC, -0.217 E-score. As for ACAACATG, the figure is -0.0603 E-score; as for AAGAAACG, -0.0149 E-score. On to CGGGCGCA, for which the binding signal came out at 0.0465 E-score. To GTTAGAGA belongs -0.225 E-score. As for AAAGGCCA, the figure is 0.128 E-score; as for CATTTGTA, -0.0203 E-score; as for ATGTTCCC, -0.115 E-score. Regarding ACACGGCA, the binding signal was 0.374 E-score. As to ATCGGAAC, the binding signal is -0.106 E-score. To AACCCTGT belongs -0.037 E-score. As for CGCTGAAG, the figure is -0.218 E-score. To GGCGTGTA belongs 0.438 E-score; to AAAGCCGT, -0.11 E-score; to CCTTACGC, -0.0815 E-score. Take CGAAACCA: the binding signal was 0.00389 E-score. As for AATAGTGA, the figure is -0.237 E-score; as for ACTCAAGC, -0.0937 E-score; as for ATGTGCCA, -0.0933 E-score. To CGAGATCC belongs 0.0469 E-score. As for AAGCGTTC, the figure is -0.134 E-score. As to GGGCTAAC, the binding signal is -0.0357 E-score. Consider CCGGAAAA, for which the binding signal is -0.0172 E-score. For the sequence ACGTAACC, the binding signal is -0.041 E-score. To GCCTTCGA belongs -0.172 E-score; to TCCACAAA, -0.0503 E-score; to AGTGTTAT, 0.395 E-score. As for GAGGAGAC, the figure is -0.157 E-score.

On to GGGGGAGA, for which the binding signal was -0.0362 E-score.

Turning to AGCAAGTC, the binding signal is -0.322 E-score. As for ACTCACCC, the figure is 0.0264 E-score. As for AGAGTGCG, the figure is 0.0717 E-score; as for GACTTAAC, -0.0325 E-score; as for ATCCGGGA, 0.061 E-score. As for AAAGTGAC, the figure is -0.00315 E-score; as for GGCGCGCC, -0.0404 E-score; as for GAGTGAAC, -0.0846 E-score. Consider CGACTTGA, for which the binding signal was -0.258 E-score. In the case of ATATCCAA, the binding signal is -0.116 E-score. To AATGATGG belongs -0.126 E-score; to ACAGAATA, 0.00178 E-score; to ATCTACAC, 0.404 E-score.

On to GCACGGGA, for which the binding signal was -0.0239 E-score.

For ACGGTCTA, the binding signal is -0.27 E-score.

As for CGTAAAAC, the binding signal is -0.0532 E-score. To AATACCAC belongs 0.0356 E-score; to GTCACCAA, 0.133 E-score; to CTAAGATA, -0.0574 E-score. As for CGGAAACA, the figure is 0.136 E-score; as for GAGTATCA, 0.228 E-score; as for CGCTAGGA, -0.0248 E-score. GAAGGTTA: the binding signal is -0.132 E-score. Turning to CAAGCTGA, the binding signal is -0.191 E-score.

With ATGCTAGG, the binding signal was -0.0658 E-score. To AGTAACGC belongs -0.104 E-score; to AGGGGTCG, 0.258 E-score. As for GAAACCAC, the figure is 0.0452 E-score. To CGTTACCC belongs 0.207 E-score; to CTAAGGGC, -0.171 E-score. As for GAGTGATC, the binding signal is 0.0711 E-score. As for AGCAGATA, the figure is -0.0353 E-score; as for GAACCGAA, -0.118 E-score. To AATGGCAT belongs -0.33 E-score. Consider GCCACCAA, for which the binding signal was -0.27 E-score. To ACCTCTGC belongs -0.0341 E-score; to AGCAAACA, 0.0665 E-score. Take AAAAGCAA: the binding signal is -0.247 E-score.

On to ACCGTTCG, for which the binding signal was 0.0748 E-score.

Consider CATGGTCC, for which the binding signal is -0.125 E-score.

As for TAAGCCCA, the binding signal is -0.162 E-score. As for GTTCGCGA, the figure is -0.0734 E-score. In the case of TCTGTGAA, the binding signal amounted to 0.0431 E-score. For ACATTTGA, the binding signal is -0.0673 E-score. With AACTACTA, the binding signal was -0.18 E-score.

For the sequence GTAGATCA, the binding signal came out at 0.00254 E-score. As for AAGTGAAG, the figure is -0.194 E-score; as for CTGGGGGC, -0.153 E-score; as for ATCGAAGG, -0.176 E-score. To AAGGTGCA belongs 0.222 E-score; to AGAAACAT, -0.231 E-score; to GAATGGCA, -0.244 E-score. As for ACAGTTAG, the binding signal was -0.223 E-score.

For GTAAGGAA, the binding signal is -0.155 E-score.

Regarding CTGCTAAA, the binding signal was -0.133 E-score. As for AGTACGTA, the figure is -0.117 E-score; as for ACTAGTTA, 0.0365 E-score. To AAGTCCCA belongs -0.237 E-score; to GGCTACTA, 0.0205 E-score; to AAAGCCCC, -0.176 E-score. In the case of CCGGACCA, the binding signal is 0.00515 E-score. To CAAATTGA belongs -0.185 E-score; to GTTATACA, 0.171 E-score; to CAAGGCAG, -0.0349 E-score. To ACTACCGA belongs 0.00587 E-score. To AGGCTCAG belongs -0.119 E-score; to ATTTTACC, 0.0215 E-score; to GCTCGTTA, 0.0488 E-score. On to CGCCGTAG, for which the binding signal was -0.111 E-score. To TCCTACCA belongs -0.102 E-score; to GGAATTCA, -0.175 E-score. To TACAGTGA belongs -0.0933 E-score. Regarding GTTCTTGA, the binding signal stood at 0.0137 E-score. As for ATCTCAAG, the figure is -0.166 E-score; as for TCAGTACA, 0.154 E-score; as for ACCAGCCT, -0.147 E-score. To CCCAAATC belongs -0.207 E-score; to CCCGGCAG, -0.0722 E-score; to CCCTCAGG, -0.0716 E-score. As for AGATCAGG, the figure is 0.0734 E-score; as for TCAACTGA, -0.0594 E-score. As to ACAGTAGG, the binding signal was -0.0405 E-score. In the case of CTGTGCTC, the binding signal is -0.0693 E-score. To ACATCTAA belongs -0.126 E-score; to AGACCAAT, -0.214 E-score. As for CTACGCGA, the figure is -0.00166 E-score; as for AGGTTCCC, -0.199 E-score. As for CTAAGTCA, the figure is -0.212 E-score; as for GCTCGACC, -0.0628 E-score. Turning to AACTATTA, the binding signal is -0.33 E-score. As to GACTGAAC, the binding signal was -0.0536 E-score. As for CGCGCAGA, the figure is 0.00481 E-score. As for AAAGGTAC, the figure is -0.0261 E-score. To GGGCGAAC belongs -0.0435 E-score; to GCATAAGC, -0.106 E-score; to ATTTTCGC, -0.161 E-score. In the case of ATAACGCG, the binding signal was 0.0979 E-score. For the sequence CAATCTAG, the binding signal was -0.00233 E-score. As for AGCACAAC, the figure is -0.00405 E-score. Take TCATTTCA: the binding signal was -0.0579 E-score. As for GCTTCGAA, the figure is -0.108 E-score; as for CCGATAGG, 0.0353 E-score; as for GGTCGAAA, -0.05 E-score. With AGGCTTAA, the binding signal is -0.144 E-score.

On to CTGATGAA, for which the binding signal was -0.138 E-score.

Turning to CAATCCCA, the binding signal is -0.163 E-score. As for ATGGTCCC, the figure is -0.252 E-score. To CAATTCAG belongs -0.154 E-score; to AGCATGCA, -0.0221 E-score. With TCCAGCGA, the binding signal was -0.118 E-score.

Values taken from publication PMC10668032.
